Measurements reported in patent US8536183B2, “3-pyridylcarbonyl-piperazinylsulfonyl derivatives” (Convergence Pharmaceuticals Limited, priority 2008, dated 2013).
Some results were stated once for a whole list of compounds, not compound by compound.

Target: T1, hCaV2.2 (Homo sapiens, UniProt Q00975)
T1 construct: expressed in transfected cells; plasmids pCIN5-hCaV2.2, pCIH-hCaV β3, pCIP-α2δ1
Experiment: hCaV2.2 assay, IonWorks planar array electrophysiology in stably transfected HEK293 cells
Format: cell-based
Details: 10th versus 1st depolarising pulse, 10 Hz, holding potential -90 mV to +10 mV; HEK293 cells expressing human CaV2.2 alpha/beta3/alpha2delta1
Protocol: Compounds of the invention may be tested for in vitro biological activity in the hCaV2.2 assay in accordance with the following studies:
Stable cell lines expressing the human CaV2.2 α (als) subunit, along with the human […] and α2δ1 auxiliary subunits were created following sequential transfection and selection of human embryonic kidney (HEK293) cells. HEK293 cells were cultured in Dulbecco's modified Eagles media/F12 media (Invitrogen, Cat #041-95750V) containing 10% foetal bovine serum, with added L-glutamine (2 mM; Invitrogen, Cat #25030-024) and non-essential amino acids (5%; Invitrogen, Cat #11140-035). Initially HEK293 cells were transfected with two plasmid vectors for expression of the hCaV2.2 α subunit (pCIN5-hCaV2.2 which carries a neomycin resistance marker) and the hCaV β3 subunit (pCIH-hCaV β3 which carries a hygromycin resistance marker). Clonal cell lines were isolated following selection in media supplemented with 0.4 mg ml^−1 Geneticin G418 (Invitrogen, Cat #10131-027) and 0.1 mg ml^1 hygromycin (Invitrogen, Cat #10687-010). These clonal cell lines were assessed for Cav2.2α/β3-mediated current expression using the IonWorks planar array electrophysiology technology (described below). A clonal line was identified that gave a reasonable level of functional Cav2.2α/β3 current expression. This cell line was transfected with a plasmid vector for expression of the human […] subunit (pCIP-α2δ1 which carries a puromycin resistance marker) and clonal cell lines isolated following selection in media containing 0.62 μg ml^−1 puromycin (Sigma, Cat #P-7255), in addition to 0.4 mg ml^−1 Geneticin G418 and 0.1 mg ml^−1 hygromycin. Several cell lines were identified that gave robust levels of Cav2.2α/β3/α2δ1-mediated current expression and one of these was selected for compound profiling. Expression of all three subunits within this cell line was continuously maintained by the inclusion of G418 (0.4 mg ml^−1), hygromycin (0.1 mg ml^−1) and puromycin (0.62 μg ml^−1). Cells were maintained at 37° C. in a humidified environment containing 5% CO2 in air. Cells were liberated from the T175 culture flasks for passage and harvesting using TrpLE (Invitrogen, Cat #12604-013).
Cells were grown to 30-60% confluence in T175 flasks and maintained at 30° C. for 24 hrs prior to recording. Cells were lifted by removing the growth media, washing with Ca^2+ free PBS (Invitrogen, Cat #14190-094) and incubating with 3 ml of warmed (37° C.) TrpLE (Invitrogen, Cat #12604-013) for 6 minutes. Lifted cells were suspended in 10 ml of extracellular buffer. Cell suspension was then placed into a 15 ml tube and centrifuged for 2 minutes at 700 rpm. After centrifugation, the supernatant was removed and the cell pellet was resuspended in 4.5 ml of extracellular solution.
Currents were recorded at room temperature (21-23° C.) using the IonWorks planar array electrophysiology technology (Molecular Devices Corp.). Stimulation protocols and data acquisition were carried out using a microcomputer (Dell Pentium 4). In order to determine planar electrode hole resistances (Rp), a 10 mV, 160 ms potential difference was applied across each hole. These measurements were performed before cell addition. After cell addition a seal test was performed prior to antibiotic (amphotericin) circulation to achieve intracellular access. Leak subtraction was conducted in all experiments by applying a 160 ms hyperpolarizing (10 mV) prepulse 200 ms before the test pulses to measure leak conductance. Test pulses stepping from the holding potential (VH) of −90 mV to +10 mV were applied for 20 ms and repeated 10 times at a frequency of 10 Hz. In all experiments, the test pulse protocol was performed in the absence (pre-read) and presence (post-read) of a compound. Pre- and post-reads were separated by a compound addition followed by a 3-3.5 min incubation.
The intracellular solution contained the following (in mM): K-gluconate 120, KCl 20 mM, MgCl2 5, EGTA 5, HEPES 10, adjusted to pH 7.3. […]

T1 sequence (Q00975 whole entry): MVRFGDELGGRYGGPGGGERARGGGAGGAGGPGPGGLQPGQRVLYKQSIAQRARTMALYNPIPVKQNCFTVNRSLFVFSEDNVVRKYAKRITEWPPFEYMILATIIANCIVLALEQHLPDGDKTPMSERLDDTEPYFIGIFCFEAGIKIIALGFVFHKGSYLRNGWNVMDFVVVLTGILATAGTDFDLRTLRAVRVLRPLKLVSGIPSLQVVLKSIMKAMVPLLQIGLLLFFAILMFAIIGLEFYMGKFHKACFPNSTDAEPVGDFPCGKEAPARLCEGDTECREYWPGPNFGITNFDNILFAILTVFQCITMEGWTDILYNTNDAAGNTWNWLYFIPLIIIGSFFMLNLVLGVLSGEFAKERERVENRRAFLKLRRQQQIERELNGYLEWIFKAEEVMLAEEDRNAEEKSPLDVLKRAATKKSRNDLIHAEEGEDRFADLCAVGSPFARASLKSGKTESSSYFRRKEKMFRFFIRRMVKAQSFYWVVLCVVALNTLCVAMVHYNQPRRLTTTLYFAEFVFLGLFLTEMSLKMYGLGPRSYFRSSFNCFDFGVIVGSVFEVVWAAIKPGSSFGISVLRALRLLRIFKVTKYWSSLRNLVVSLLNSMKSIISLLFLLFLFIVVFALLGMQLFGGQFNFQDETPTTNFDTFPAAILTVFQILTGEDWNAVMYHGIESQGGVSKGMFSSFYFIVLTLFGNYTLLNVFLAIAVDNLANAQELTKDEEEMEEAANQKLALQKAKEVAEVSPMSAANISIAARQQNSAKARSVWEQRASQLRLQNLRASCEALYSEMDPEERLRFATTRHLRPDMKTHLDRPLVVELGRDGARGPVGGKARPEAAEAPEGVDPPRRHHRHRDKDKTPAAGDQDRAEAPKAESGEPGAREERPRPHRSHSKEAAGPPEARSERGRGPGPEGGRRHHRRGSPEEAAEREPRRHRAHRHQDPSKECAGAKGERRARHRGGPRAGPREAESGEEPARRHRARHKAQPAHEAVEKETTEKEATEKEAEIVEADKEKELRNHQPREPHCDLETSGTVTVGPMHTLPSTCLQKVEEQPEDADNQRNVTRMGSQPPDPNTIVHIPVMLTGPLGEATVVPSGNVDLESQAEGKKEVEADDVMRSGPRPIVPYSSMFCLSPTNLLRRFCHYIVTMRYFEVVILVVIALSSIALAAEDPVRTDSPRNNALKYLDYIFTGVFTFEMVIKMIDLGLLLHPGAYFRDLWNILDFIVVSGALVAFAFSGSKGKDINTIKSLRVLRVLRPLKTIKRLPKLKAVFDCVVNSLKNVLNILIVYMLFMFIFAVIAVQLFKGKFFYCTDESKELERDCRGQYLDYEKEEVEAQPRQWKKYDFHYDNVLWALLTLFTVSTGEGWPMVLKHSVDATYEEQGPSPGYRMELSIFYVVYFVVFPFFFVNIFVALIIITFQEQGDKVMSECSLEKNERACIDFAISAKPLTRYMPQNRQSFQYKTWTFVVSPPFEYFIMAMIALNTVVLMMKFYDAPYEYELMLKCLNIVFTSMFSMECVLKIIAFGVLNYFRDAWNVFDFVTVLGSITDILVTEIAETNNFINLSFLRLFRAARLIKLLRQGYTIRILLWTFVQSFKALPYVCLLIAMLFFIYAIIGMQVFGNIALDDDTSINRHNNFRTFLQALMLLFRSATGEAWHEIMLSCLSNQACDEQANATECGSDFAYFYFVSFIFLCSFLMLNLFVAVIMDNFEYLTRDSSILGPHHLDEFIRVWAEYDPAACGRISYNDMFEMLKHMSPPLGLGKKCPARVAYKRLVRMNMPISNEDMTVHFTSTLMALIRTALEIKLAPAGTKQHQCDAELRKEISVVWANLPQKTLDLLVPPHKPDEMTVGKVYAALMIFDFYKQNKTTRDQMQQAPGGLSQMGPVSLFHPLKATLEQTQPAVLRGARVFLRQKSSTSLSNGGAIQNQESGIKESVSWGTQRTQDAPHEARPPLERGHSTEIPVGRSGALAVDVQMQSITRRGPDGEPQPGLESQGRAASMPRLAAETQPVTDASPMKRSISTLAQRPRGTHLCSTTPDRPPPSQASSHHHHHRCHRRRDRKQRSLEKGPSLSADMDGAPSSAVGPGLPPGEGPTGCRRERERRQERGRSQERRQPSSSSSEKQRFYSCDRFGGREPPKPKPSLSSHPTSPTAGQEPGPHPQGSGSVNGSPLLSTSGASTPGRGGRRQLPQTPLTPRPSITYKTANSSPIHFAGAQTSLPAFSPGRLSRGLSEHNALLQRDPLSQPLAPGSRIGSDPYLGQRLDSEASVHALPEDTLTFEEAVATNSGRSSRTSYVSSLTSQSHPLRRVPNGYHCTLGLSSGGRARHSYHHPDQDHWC

Row | Compound | pUD30 (use-dependent; concentration producing 30% use-dependent inhibition)
1 | Cc1cc(C#N)ccc1S(=O)(=O)N1CCN(C(=O)c2ccc(N(C)C)nc2)[C@@H](C)C1 [Example 71, 4-[((3S)-4-{[6-(dimethylamino)-3-pyridinyl]carbonyl}-3-methyl-1-piperazinyl)sulfonyl]-3-methylbenzonitrile] | ≥ 4.5
2 | Cc1ccc(C(=O)N2CCN(S(=O)(=O)c3ccc(C(F)(F)F)cc3C)CC2)cn1 [Example 74, 1-[(6-methyl-3-pyridinyl)carbonyl]-4-{[2-methyl-4-(trifluoromethyl)phenyl]sulfonyl}piperazine] | ≥ 4.5
3 | C[C@H]1CN(C(=O)c2ccc(N3CCOCC3)nc2)CCN1S(=O)(=O)c1ccc(Cl)cc1 [Example 7, 4-[5-({(3S)-4-[(4-Chlorophenyl)sulfonyl]-3-methyl-1-piperazinyl}carbonyl)-2-pyridinyl]morpholine] | ≥ 4.5
4 | Cc1ccc(C(F)(F)F)cc1S(=O)(=O)N1CCN(C(=O)c2cccnc2C)CC1 [Example 62, 1-[(2-methyl-3-pyridinyl)carbonyl]-4-{[2-methyl-5-(trifluoromethyl)phenyl]sulfon-yl}piperazine] | ≥ 4.5
5 | Cc1ccc(C(=O)N2CCN(S(=O)(=O)c3ccc(OC(F)F)cc3)CC2)cn1 [Example 73, 1-({4-[(difluoromethyl)oxy]phenyl}sulfonyl)-4-[(6-methyl-3-pyridinyl)carbonyl]piperazine] | ≥ 4.5

Second part, the compound after the results:

Row | pUD30 (use-dependent; concentration producing 30% use-dependent inhibition) | Compound
6 | ≥ 4.5 | Cc1ncccc1C(=O)N1CCN(S(=O)(=O)c2ccc(OC(F)(F)F)cc2)C[C@H]1C [Example 58, (2R)-2-methyl-1-[(2-methyl-3-pyridinyl)carbonyl]-4-({4-[(trifluoromethyl)oxy]phenyl}sulfonyl)piperazine]
7 | ≥ 4.5 | Cc1cc(F)ncc1C(=O)N1CCN(S(=O)(=O)c2ccc(C(F)(F)F)cc2)C[C@@H]1C [Example 27, (2S)-1-[(6-Fluoro-4-methyl-3-pyridinyl)carbonyl]-2-methyl-4-{[4-(trifluoromethyl)phenyl]sulfonyl}piperazine]
8 | ≥ 5.5 | Cc1ccc(C(=O)N2CCN(S(=O)(=O)c3ccc(C(F)(F)F)cc3)C[C@@H]2C)cn1 [Example 1, (2S)-2-Methyl-1-[(6-methyl-3-pyridinyl)carbonyl]-4-{[4-(trifluoromethyl)phenyl]sulfonyl}piperazine]
9 | ≥ 4.5 | Cc1ccc(C(=O)N2CCN(S(=O)(=O)c3ccc(C#N)cc3)C[C@@H]2C)cn1 [Example 72, 4-({(3S)-3-methyl-4-[(6-methyl-3-pyridinyl)carbonyl]-1-piperazinyl}sulfonyl)benzo-nitrile]
10 | ≥ 4.5 | Cc1ccc(C(=O)N2CCN(S(=O)(=O)c3cc(C(F)(F)F)ccc3C)CC2)cn1 [Example 61, 1-[(6-methyl-3-pyridinyl)carbonyl]-4-{[2-methyl-5-(trifluoromethyl)phenyl]sulfon-yl}piperazine]
11 | ≥ 5.0 | Cc1ccc(C(=O)N2CCN(S(=O)(=O)c3cc(C(F)(F)F)ccc3C)C[C@@H]2C)cn1 [Example 59, (2S)-2-methyl-1-[(6-methyl-3-pyridinyl)carbonyl]-4-{[2-methyl-5-(trifluoromethyl)phenyl]sulfon-yl}piperazine]

Same assay, conditions: 10th versus 1st depolarising pulse, 10 Hz, holding potential -90 mV to +10 mV; HEK293 cells expressing human CaV2.2 alpha/beta3/alpha2delta1; listed as compound 59

Row | Compound | pUD30 (use-dependent; concentration producing 30% use-dependent inhibition)
12 | Cc1ccc(C(=O)N2CCN(S(=O)(=O)c3cc(C(F)(F)F)ccc3C)C[C@@H]2C)cn1 [Example 59, (2S)-2-methyl-1-[(6-methyl-3-pyridinyl)carbonyl]-4-{[2-methyl-5-(trifluoromethyl)phenyl]sulfon-yl}piperazine] | ≥ 4.5
